# Data as given in PubChem BioAssay AID1345083 (National Center for Advancing Translational Sciences (NCATS), 2018).
# “And” between values parts separate entries of the source, which are not always exact repeats. Equal values may be shown once. The whole screen tested about 94,000 compounds, of which about 6,200 (6.6%) were called active. Inconclusive means that the source gave no clear call. Such entries were picked first, then a sample of the others. Calls follow the shape of the dose curve; as a rule, active = well fitted inhibition curve with a large enough effect; inconclusive = small, poorly fitted or top-dose-only effect; inactive = flat fitted curve, though single readings scatter. Potencies of inconclusive entries are doubtful fits and often do not repeat.
# Test: Cytotoxic Profiling in HEK 293 Cell Line of Diverse Libraries Using Quantitative High-Throughput Screening; also: nearly all actives have a fitted effect of over 60% in size
# Conditions: HEK 293 viability, ATP luminescence (CellTiter-Glo), 48-72 h; series mostly up to 115 µM
# How it was run: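 Luminescence from cellular ATP, measured with CellTiter-Glo, indicates HEK 293 viability. Cells plated at 250 cells/well are treated with compound for 48 or 72 hr at 37 degree Celsius before reagent addition.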
# Potency is read from the fitted curve at half-maximal effect; tags tell the direction and shape of the fitted curve.
row,Compound,Potency
1,COc1ccc(C(=O)N2CCC23Cc2ccccc2NC3=O)cc1 (stereo not given),"inconclusive: 126 µM [inhibitor, single point]"
2,CCN1CCN(C(=O)c2nc3sccn3c2-c2ccc(C)cc2)CC1,inactive
3,CCC1=C(C(=O)OC)C(c2cccc(C)c2)N2C(CC(=O)Nc3ccc(OC)cc3)=CSC2=N1 (stereo not given),active: 39.8 µM
4,COc1ccc(-c2noc(CC3CCN(C(=O)c4ccccc4C)CC3)n2)cc1,"inconclusive: 8.91 µM [inhibitor, partial curve, poor fit]"
5,C[S+](=O)([O-])N1CC2(CCCCN2Cc2ccc(Cl)cc2)Cc2ccccc21 (stereo not given),"inconclusive: 56.2 µM [inhibitor, partial curve, poor fit]"
6,CC(C)c1ccc(CN2CC(CNC(=O)c3cnn(C)c3)C3(C2)CN(c2ccccc2)C3)cc1 (stereo not given),active: 79.4 µM
7,Cn1ncc2c(C(=O)NCc3ccc(Cl)cc3)cc(-c3ccccc3F)nc21,"inconclusive: 39.8 µM [inhibitor, partial curve]"
8,COCc1nc(C2CCN(S(=O)(=O)c3ccc(C#N)cc3)C2)no1 (stereo not given),"inconclusive: 89.1 µM [inhibitor, single point]"
9,O=C(NCC1CC1)c1nc2cccnc2n(C2CCCC2)c1=O,"inconclusive: 100 µM [inhibitor, partial curve]"
10,O=C(Cn1cccc1-c1nc(-c2ccc3c(c2)OCO3)no1)N1CCN(c2ccccc2)CC1,"inconclusive: 50.1 µM [inhibitor, partial curve, poor fit]"
11,CNC(=O)C1(C)CN(Cc2ccccc2)Cc2ccc(N3CCOCC3)nc21 (stereo not given),"inconclusive: 89.1 µM [inhibitor, partial curve]"
12,COc1cccc(-c2cc(-c3ccccc3)nc3c(C)noc23)c1,"inconclusive: 89.1 µM [inhibitor, partial curve]"
13,Cc1cc2c(c(=O)n(-c3ccc(F)cc3)c(=O)n2CC(=O)Nc2cc(F)ccc2F)n1C,inactive
14,O=c1cc(C2=CCOCC2)oc2c(-c3cccc4[nH]ccc34)nccc12,active: 39.8 µM
15,CCc1noc(CC2CCOC3(CCN(S(=O)(=O)c4cccc(Cl)c4)CC3)C2)n1 (stereo not given),"inconclusive: 50.1 µM [inhibitor, partial curve, poor fit]"
16,COc1ccc(-c2cc(N3CCCC(NC(=O)c4ccc(C)nc4)C3)n[nH]2)cc1 (stereo not given),inactive
17,Cc1ccc(CN2CC[C@@H]3[C@H]2C(=O)NC[C@H](CCC(=O)NCc2ccc(F)cc2)N3C)cc1,"inconclusive: 39.8 µM [inhibitor, full curve]"
18,Cc1noc(C)c1-c1cc2c(cc(-c3ccccc3)n2C)c(N2CCOCC2)n1,active: 56.2 µM
19,CCNC(=O)Nc1ccc2c(c1)CN(Cc1ccccc1OC)C(=O)C(C)O2 (stereo not given),"inconclusive: 25.1 µM [inhibitor, full curve]"
20,COc1cccc(-c2ccc(C(=O)NCCNC(=O)C(C)(C)C)cc2)c1,"inconclusive: 50.1 µM [inhibitor, partial curve, poor fit]"

row,Compound,Potency
1,Cc1ccc(-c2noc(-c3nc(Cc4ccccc4)no3)n2)cc1,inactive
2,Cn1ccc(Nc2nccc3c(=O)cc(-c4cn[nH]c4)oc23)n1,"inconclusive: 112 µM [inhibitor, partial curve, poor fit]"
3,Cc1ccc(-c2cccc(CN3CCCC(c4nc5ccc(C)cc5c(=O)[nH]4)C3)c2)c(C)c1 (stereo not given),"inconclusive: 50.1 µM [inhibitor, partial curve, poor fit] and active: 35.5 µM"
4,Cc1cc(C(=O)Nc2ccc(C(O)[C@H]3COCC(=O)N3Cc3ccc(F)cc3)cc2)n(C)n1 (stereo not given in full),"inconclusive: 79.4 µM [inhibitor, partial curve, poor fit]"
5,S=C(Nc1ccccc1)N[C@H]1CO[C@H]2[C@@H]1OC[C@@H]2Nc1nccc(-c2ccco2)n1,"inconclusive: 70.8 µM [inhibitor, partial curve, poor fit]"
6,O=C(NCc1nnc2ccc(-c3ccc(Cl)cc3)nn12)c1ccc(F)c(F)c1,"inconclusive: 8.91 µM [inhibitor, full curve, poor fit]"
7,COc1ccccc1C(=O)N1CCCCCC1CN1CCc2ccccc2C1 (stereo not given),"inconclusive: 50.1 µM [inhibitor, partial curve, poor fit]"
8,N#Cc1cccc(NC(=O)N2CCC[C@@H](O)[C@H](NC(=O)c3ccc(OCc4ccc(F)cc4)cc3)C2)c1,"inconclusive: 25.1 µM [inhibitor, full curve, poor fit]"
9,O=C(c1ccccc1F)N1CCCC(c2nnnn2-c2ccccc2)C1 (stereo not given),inactive
10,Cc1nc2c(c(-c3ccc(Cl)cc3)n1)CCN([S+](C)(=O)[O-])CC2,inactive
11,O=[S+]([O-])(CCC(F)(F)F)NC1CCN(Cc2cccc(-c3cccs3)c2)CC1,"inconclusive: 20 µM [inhibitor, full curve, poor fit]"
12,COc1cccc(CN2CCCN(Cc3ccncc3)C(c3ccccc3)CC(=O)NCC2)c1OC (stereo not given),"inconclusive: 89.1 µM [inhibitor, single point]"
13,O=C(c1ccsc1)N1CCC2(CC1)NCCc1c2[nH]c2ccccc12,"inconclusive: 89.1 µM [inhibitor, single point]"
14,Cn1ncc2c(C(=O)NCCc3ccc(F)cc3)cc(-c3ccc(Cl)cc3)nc21,"inconclusive: 89.1 µM [inhibitor, single point]"
15,CC(C)(C)OC(=O)N1CC(Nc2ccc(O)cc2)C1,active: 70.8 µM and active: 44.7 µM
16,CC(C)c1nc2c(c(-c3ccc(Cl)cc3)n1)CN(C(=O)c1ccc(Cl)nc1)CC2,"inconclusive: 79.4 µM [inhibitor, partial curve]"
17,Cc1ccc(C(=O)N2CCCCCCNC(=O)[C@@H]3C[C@@H](c4nc(-c5cccnc5)no4)C[C@@H]32)s1,inactive
18,O=C(NCc1ccc2c(c1)OCO2)C1Cn2cccc2C(=O)N1Cc1cccnc1 (stereo not given),inactive
19,COc1ccc(CCC(=O)N2CCC3(CC2)CC(OCC2CC2)CCO3)cc1 (stereo not given),inactive
20,CC1=NS(=O)(=O)N(C)C=C1C(=O)OCc1nc(-c2cccc(Br)c2)no1,"inconclusive: 56.2 µM [inhibitor, partial curve, poor fit]"

row,Compound,Potency
1,O=[S+]([O-])(NC1CCCN(c2ccc3nnc(C4CC4)n3n2)C1)c1cccc(C(F)(F)F)c1 (stereo not given),"inconclusive: 50.1 µM [inhibitor, partial curve, poor fit]"
2,O=S(=O)(Cc1ccccc1)N1CCC(c2nc(CCOc3ccc(F)cc3)no2)C1 (stereo not given),"inconclusive: 50.1 µM [inhibitor, partial curve, poor fit]"
3,CCS(=O)(=O)N(C1CC1)C1CCOC2(CCN(C(=O)c3cccc(OC)c3)CC2)C1 (stereo not given),"inconclusive: 89.1 µM [inhibitor, single point]"
4,CS(=O)(=O)CC[C@H](NC(=O)C1=C[C@@H](NC(=O)Nc2ccc(F)cc2F)[C@@H](O)[C@H](O)C1)C(N)=O,inactive
5,Cc1ccccc1CN1CC[C@H](c2nc3ccc(F)cc3[nH]2)C1,active: 35.5 µM
6,CC(C)(C)CN1CCCC12Cc1ccccc1CNC2=O (stereo not given),"inconclusive: 63.1 µM [inhibitor, partial curve, poor fit]"
7,O=C(c1ccc(F)c(Cl)c1)N1CCN(c2cc(C(F)(F)F)ncn2)CC1,"inconclusive: 22.4 µM [inhibitor, full curve]"
8,COCCNC(=O)C1CCCN1Cc1ccc(-c2cc(C)cc(C)c2)cc1 (stereo not given),"inconclusive: 44.7 µM [inhibitor, partial curve, poor fit]"
9,O=C(c1ccc(F)c(Cl)c1)N1CCN(c2cc(-c3cccs3)[nH]n2)CC1,"inconclusive: 44.7 µM [inhibitor, partial curve, poor fit]"
10,O=C(c1ccc(Cl)cc1)N1CC2(CCCN2Cc2cc(F)c(F)c(F)c2)Cc2ccccc21 (stereo not given),"inconclusive: 22.4 µM [inhibitor, full curve]"
11,COc1ccc(C(=O)NC2CCN(c3cc(-c4ccc(OC)cc4)[nH]n3)CC2)cc1,"inconclusive: 89.1 µM [inhibitor, single point]"
12,Cc1ccccc1-n1nc(C)c(CCC(=O)N2CCSCC2)c1Oc1ccccc1F,"inconclusive: 50.1 µM [inhibitor, partial curve, poor fit]"
13,C=CCN(C)C(=O)[C@@H](C)C1CC[C@@]2(C)Cc3sc(NCCCC)nc3[C@@H](C)[C@@H]2[C@H]1O (stereo not given in full),"inconclusive: 56.2 µM [inhibitor, partial curve, poor fit]"
14,COc1ccc(CNC(=O)c2ccc3nnc(-c4ccc(Cl)cc4)n3c2)cc1,inactive
15,O=C(c1cc(-c2ccc(F)cc2)n[nH]1)N1CCC(OCC2CC2)C1 (stereo not given),inactive
16,Cc1cccc2c1O[C@H]1[C@H](CO)CN(C(=O)CC(C)C)[C@@H]21,"inconclusive: 35.5 µM [inhibitor, full curve, poor fit]"
17,COc1cccc(CNC(=O)c2cn3cc(-c4cccc(C#N)c4)sc3n2)c1,"inconclusive: 25.1 µM [inhibitor, full curve, poor fit]"
18,COc1ccc(N2C(=O)C3(CCCCC3)C2C(=O)NCCN2CCc3ccccc3C2)cc1 (stereo not given),"inconclusive: 56.2 µM [inhibitor, partial curve, poor fit]"
19,O=C(NCc1ccccc1Cl)c1nc2sccn2c1-c1ccncc1,"inconclusive: 79.4 µM [inhibitor, partial curve, poor fit]"
20,Clc1ccc(-c2cnc3n2C[C@H](CNC2CCOCC2)OC3)cc1,"inconclusive: 100 µM [inhibitor, partial curve, poor fit]"
